# Test results reported in PubChem BioAssay AID1159614 (National Center for Advancing Translational Sciences (NCATS), 2016).
# Hit rate of the full screen: of about 45,000 compounds, about 65 (0.1%) were called active. The call rests on the fitted dose curve; in most records, active means well fitted activation curve with a large enough effect; inconclusive means small, poorly fitted or top-dose-only effect; inactive means no such curve, though single readings can be large or run the other way. This is one part of the list.
# Biological target: Galactocerebrosidase (Homo sapiens) (UniProt P54803)
# Test: A Novel Cell-Based Assay to Identify Small Molecules for B -Galactocerebrosidase; further: 0% is about no effect; nearly all actives have a fitted effect of over 65% in size
# Settings: 145M-Twi-hGALC-G270D cells (Twitcher mouse brain line with human GALC G270D), HMU-beta-Gal fluorescence, 48 h; series mostly up to 57.5 µM; activation: at the top concentration
# Summary of the method: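 Mutant human GALC (G270D), stably expressed in a Twitcher mouse brain cell line lacking endogenous GALC, is measured in live-treated cells via 6-hexadecanoylamino-4-methylumbelliferyl-β-galactoside hydrolysis (0.1 mM final, pH 5.2) with fluorescent detection.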
# UniProt P54803, sequence (P54803 whole entry, looked up): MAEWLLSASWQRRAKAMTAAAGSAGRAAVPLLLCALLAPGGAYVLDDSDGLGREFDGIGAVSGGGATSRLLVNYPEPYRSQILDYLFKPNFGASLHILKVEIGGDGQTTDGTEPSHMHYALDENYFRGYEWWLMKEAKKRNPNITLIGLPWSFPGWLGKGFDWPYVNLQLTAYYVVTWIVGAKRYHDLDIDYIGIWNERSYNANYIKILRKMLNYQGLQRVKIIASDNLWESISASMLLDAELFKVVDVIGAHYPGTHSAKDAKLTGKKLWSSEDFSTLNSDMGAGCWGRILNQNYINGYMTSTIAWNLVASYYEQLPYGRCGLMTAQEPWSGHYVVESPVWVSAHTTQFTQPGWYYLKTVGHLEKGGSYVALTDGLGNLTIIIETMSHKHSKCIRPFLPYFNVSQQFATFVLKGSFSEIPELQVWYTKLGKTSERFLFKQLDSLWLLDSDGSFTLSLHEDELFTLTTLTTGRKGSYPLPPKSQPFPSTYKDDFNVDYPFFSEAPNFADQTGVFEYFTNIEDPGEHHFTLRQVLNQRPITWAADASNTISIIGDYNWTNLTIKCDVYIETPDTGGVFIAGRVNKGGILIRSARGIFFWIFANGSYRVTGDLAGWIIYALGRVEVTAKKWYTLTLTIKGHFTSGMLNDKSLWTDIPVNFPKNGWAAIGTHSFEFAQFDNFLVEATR
row,SMILES,activation
1,COc1ccc(N2CCN(Cc3cc(=O)oc4ccc(OC)cc34)CC2)cc1,inactive: -2.33%
2,CCc1ccccc1Nc1cc(C(=O)NCCc2ccccc2)c2ccccc2n1,inactive: -15.4%
3,CCCOc1ccc(Nc2cc(C)nc(C)n2)cc1,inactive: -19.3%
4,O=C(Cn1c(=O)n(-c2ccc(F)cc2)c(=O)c2sc3ccccc3c21)NC1CCCCC1,inactive: -1.84%
5,CCOC(=O)c1ccc2c(c1)N(Cc1cccc(C(F)(F)F)c1)C(=O)c1ccccc1S2(=O)=O,inactive: -11.2%
6,COCCCNS(=O)(=O)c1ccc(N2CCCCS2(=O)=O)cc1,inactive: -8.35%
7,Cc1ccc(NC(=O)CN2C(=O)CSc3ccc(S(=O)(=O)N4CCCC4)cc32)c(C)c1,inactive: -8.13%
8,COc1ccc(C(=O)Oc2c(Sc3ccccc3)c(C)nn2-c2ccccc2)cc1OC,inactive: -16.4%
9,COc1ccc(CCNC(=O)C2CCN(c3nc4ccccc4nc3C(F)(F)F)CC2)cc1OC,inactive: -11.4%
10,O=C(Nc1ccc2nc(SCC(=O)N3CCCc4ccccc43)sc2c1)c1cccc(Cl)c1,inactive: -6.73%
11,COc1cccc(-c2nnc(-c3cc4cc(Cl)ccc4oc3=O)o2)c1,inactive: -12.7%
12,O=C1CCc2cc(S(=O)(=O)NCc3ccc(Cl)cc3)cc3c2N1CC3,inactive: -11.3%
13,CN(C)CCN1CCN(c2cccc(Cl)c2)C1=O,inactive: -9.4%
14,COc1ccccc1NC(=O)c1oc2ccccc2c1NC(=O)C(C)C,inactive: 1.22%
15,Cc1cccc(NC(=O)CSc2nnc3scc(-c4ccccc4)n23)c1,inactive: -14.3%
16,CCC1CCC(C(=O)NC(C(=O)NCCN(CC(C)C)CC(C)C)C(C)C)CC1 (centres undefined),inactive: -9.48%
17,COc1ccccc1NC(=O)Cn1cnc2c(nc3n2CCCCC3)c1=O,inactive: -18.5%
18,O=c1c(N2CCN(c3cccc(C(F)(F)F)c3)CC2)csc2ccccc12,inactive: -10.3%
19,CC1CCN(S(=O)(=O)c2ccc3c(c2)c(=O)c(C(=O)NCc2ccc(Cl)cc2)cn3C)CC1,inactive: -8.71%
20,CC(C)(C)c1ccc(CSc2nc3c(c(=O)[nH]2)CCCC3)cc1,inactive: -28.3%
21,O=C(Nc1ccc(Cl)c(C(F)(F)F)c1)C1CCCN(S(=O)(=O)c2cccc3cccnc23)C1 (centres undefined),inactive: -6.18%
22,Cc1ccccc1CNC(=O)c1ccccc1NC(=O)c1nsc2ccccc12,inactive: 12.8%
23,COc1cc(-c2noc(CSc3nc(-c4ccc(F)cc4)cc(=O)[nH]3)n2)cc(OC)c1OC,inactive: -18.2%
24,CCOC(=O)CC(NC(=O)CCc1c(C)nc2c(-c3ccccc3)c(C)nn2c1C)c1ccc(C)cc1 (centres undefined),inactive: 8.5%
25,COc1ccc(-c2cn3c(n2)sc2cc(C(=O)NCc4cccs4)ccc23)cc1,inactive: -11.9%

row,SMILES,activation
1,COc1ccc(-c2c3c(=O)n(C)c(=O)n(C)c3cn2-c2cccc(N)c2)cc1,inactive: -9.15%
2,Cc1ccc(CNC(=O)C2CCN(C(=O)c3ccc(-n4ccc5ccccc54)s3)CC2)cc1,inactive: -12.7%
3,Cc1ccc(-n2nnc(-c3nsc(NC(=O)c4ccccc4C)n3)c2C)cc1Cl,inactive: -9.55%
4,O=C(Nc1ccc(F)cc1)N1CCN(c2ccc3nnc(-c4ccc(F)cc4)n3n2)CC1,inactive: -0.213%
5,CCOc1ccc(Nc2c(S(=O)(=O)c3ccc(Cl)cc3)cnc3ccc(OC)cc23)cc1,inactive: -2.42%
6,CCn1cc(C(=O)NCCc2ccc(Cl)cc2)c(=O)c2cc(S(=O)(=O)N3CCc4ccccc4C3)ccc21,inactive: -19.4%
7,COCCCNC(=O)c1[nH]c2cc(OC)ccc2c1Sc1ccc(C)cc1,inactive: -7.63%
8,COc1ccc(Cn2ccc3nc(C)c(C(=O)Nc4ccc(F)cc4)cc3c2=O)cc1,inactive: -8.2%
9,Fc1ccc(-c2nc(-c3cccs3)c(-c3cccs3)[nH]2)cc1,inactive: -6.48%
10,O=C(Nc1nnc(SCc2cc(=O)c3ccccc3[nH]2)s1)c1ccccc1,inactive: -9.8%
11,Cc1nn(-c2ccccc2)c2c1N(CC(=O)NCc1ccc(N(C)C)cc1)C(=O)CS2,inactive: -3.36%
12,Cc1c(NC(=O)Cc2ccc(F)cc2)cccc1-c1nc2cccnc2s1,inactive: -0.165%
13,Cc1cccc(NC(=O)CSc2nc3ccc(NC(=O)COc4ccc(Cl)cc4)cc3s2)c1,inactive: -14%
14,CCOC(=O)c1cc(-c2ccccc2)n(CCC(=O)Nc2ccc(C(F)(F)F)cc2)c1C,inactive: 17.4%
15,O=C(NCCn1cc(SCc2cccc(F)c2)c2ccccc21)c1cccc(C(F)(F)F)c1,inactive: 5.19%
16,Cc1ccc(N(Cc2cccs2)C(=O)c2ccccc2)cc1,inactive: -3.15%
17,O=C(NCCOCCO)C(=O)Nc1c2c(nn1-c1ccc(F)cc1)CSC2,inactive: -11.4%
18,CCC(=O)N1CCc2cc(S(=O)(=O)CCC(=O)N3CCN(c4ccccc4Cl)CC3)ccc21,inactive: -1.14%
19,CN(c1ncnc2c1c(-c1ccccc1)cn2-c1ccc(F)cc1)C1CCCCC1,inactive: -7.43%
20,Cc1ccc2cc3cc(C(=O)N4CCN(c5cccc(C(F)(F)F)c5)CC4)sc3nc2c1,inactive: -4.25%
21,O=C(O)c1ccc(Nc2nc(-c3ccccc3)c3cc(Br)ccc3n2)cc1,inactive: -24.5%
22,Cn1c(SCC(N)=O)nc2c([nH]c3ccccc32)c1=O,inactive: 4.99%
23,COc1ccc(-c2nc3ccc(NS(C)(=O)=O)cc3o2)cc1,inactive: -8.32%
24,Clc1ccccc1Cn1cccc1C1=NC(Cc2ccccc2)CO1 (centres undefined),inactive: -9.29%
